Consider 91 compounds from PubChem BioAssay AID463173 (ICCB-Longwood Screening Facility, Harvard Medical School, 2010).

Structures are written as SMILES. The campaign covered roughly 52,000 compounds. About 4,300 (8.3%) were called active. Cut-off read from the data, not from the text of the source: active = survival mostly below about 52% (no sharp cut-off); inactive = mostly above about 56%. The list shows a part of the results.

For this assay, the system named is DeltatarO mutant. Kind of assay: growth inhibition of S. aureus wild type versus tarO mutant, primary screen, teichoic acid synthesis inhibitors, RN4220, OD600 (AID 463173). The conditions noted are these: OD600, 18 h, hits give low values, screened at 18.75 µg/mL (by protocol).
For the compound `COc1ccc(NC(=O)CCn2c(=O)c3cccn3c3ccccc32)c(OC)c1`, the survival is active: 47%.

Consider `Cc1ccc2c(=O)cc(C(=O)Nc3ccc(S(=O)(=O)N(C)Cc4ccccc4)cc3)oc2c1`, for which the survival was inactive: 106%.

With `Cc1ccc(CNC(=O)CN(c2ccc(C)cc2)S(=O)(=O)c2c(C)nn(C)c2C)cc1`, the survival was inactive: 73%.

As to `CCN(CC)S(=O)(=O)c1ccc2c(c1)c(=O)c(C(=O)N1CCN(c3cccc(C)c3)C(C)C1)cn2C` (stereo unspecified), the survival was inactive: 78%.

For `Cc1ccn2c(=O)c(C(=O)NC(C)c3ccccc3)c(O)nc2c1` (stereo unspecified), the survival is inactive: 65%.

`COc1ccccc1N1CCN(C(=O)c2cc(-c3ccccc3O)on2)CC1`: the survival is inactive: 61%.

Take `N#Cc1cccc(NC(=O)c2cc3c(s2)-c2ccc(Cl)cc2SC3)c1`: the survival was inactive: 56%.

As to `Cc1cccnc1NC(=O)c1c(O)c2cc(F)cc3c2n(c1=O)C(C)CC3` (stereo unspecified), the survival was inactive: 104%.

`COc1ccc(C2=C(Nc3ccc(C)c(C)c3)c3ccccc3C2=O)cc1`: the survival was inactive: 93%.

`O=C(CN(Cc1cccs1)C(=O)c1csnn1)NC1CCCC1`: the survival was inactive: 62%.

For `CCc1ccccc1NC(=O)c1cc(S(=O)(=O)N2CCCc3ccccc32)ccc1F`, the survival is inactive: 91%.

In the case of `Cc1c(C(=O)Nc2ccc(F)cc2)sc2nc[nH]c(=O)c12`, the survival was inactive: 122%.

Take `CC(C)CCn1c(=O)c2sccc2n2c(CCCC(=O)NCc3ccc(F)cc3)nnc12`: the survival was inactive: 88%.

For the compound `O=C(Cn1c(=O)c2cccn2c2ccc(F)cc21)N1CCN(c2ccc(F)cc2)CC1`, the survival was inactive: 71%.

Consider `Fc1cccc(-n2ncc3c2ncn2nc(-c4ccccc4Cl)nc32)c1`, for which the survival is inactive: 78%.

Regarding `CCOc1ccc(N(C)C(CNS(=O)(=O)c2ccccc2)c2ccccc2)cc1` (stereo unspecified), the survival is inactive: 87%.

Turning to `O=C(COc1ccccc1)Nc1cccc(-c2cn3cccnc3n2)c1`, the survival was inactive: 81%.

For the compound `Cc1cccc(N2CCN(C(=O)CCn3c(=O)c4cccn4c4cccnc43)CC2)c1C`, the survival was inactive: 59%.

Consider `Cc1nc(SCC(=O)Nc2ccccc2F)[nH]c(=O)c1Cc1ccccc1`, for which the survival was inactive: 74%.

On to `O=S(=O)(c1ccccc1)c1nc(-c2cccs2)oc1SCc1ccc(F)cc1`, for which the survival was inactive: 67%.

With `COc1ccc(S(=O)(=O)c2cc(NS(=O)(=O)c3ccc(Cl)cc3)c(C)c(C)c2O)cc1`, the survival was inactive: 70%.

Take `COc1ccc(NC(=O)c2cnc[nH]2)cc1`: the survival was inactive: 138%.

Regarding `CCc1nn(CC(=O)NCc2ccccc2Cl)c(=O)c2cccn12`, the survival is inactive: 63%.

In the case of `Cc1nc(-c2ccc(S(=O)(=O)Nc3ccc(C)c(N(C)C)c3)cc2)co1`, the survival was inactive: 83%.

With `CCC(=O)Nc1nc2cc(Cl)c(C)cc2s1`, the survival was inactive: 69%.

For `COc1ccc(CCNC(=O)c2ccc3c(c2)N(Cc2ccc(F)cc2)CCS3)cc1OC`, the survival is inactive: 96%.

As for `Cc1cc(C)cc(NC(=O)c2cccc3c2C(=O)N(C2CCCCC2)C3)c1`, the survival is active: 33%.

As to `O=C(COc1ccccc1[N+](=O)[O-])Nc1ccc(-c2nc3ccccc3s2)cc1`, the survival was inactive: 63%.

In the case of `CCCN1C(=O)c2ccccc2NC1c1ccc(C)cc1` (stereo unspecified), the survival was inactive: 59%.

As for `O=C(c1ccc(CSc2nc3ccncc3n2Cc2ccccc2)cc1)N1CCCCCC1`, the survival is inactive: 70%.

Consider `Cc1cccc2cc(CNCC3CCCO3)c(Cl)nc12` (stereo unspecified), for which the survival was inactive: 79%.

In the case of `Cc1ccc(Cl)cc1-n1ncc2c(Nc3cccc(C)c3C)ncnc21`, the survival is inactive: 82%.

With `Cc1ccc(-n2nc(C(=O)N3CCN(c4cc(Cl)ccc4C)CC3)c3c4ccccc4n(C)c3c2=O)cc1`, the survival is inactive: 91%.

For the compound `Cc1ccc(NC(=O)Cn2ccn(-c3ccc(F)c(F)c3)c(=O)c2=O)cc1C`, the survival is inactive: 79%.

Regarding `COc1ccccc1CCNS(=O)(=O)c1ccc(N2CCCCS2(=O)=O)cc1`, the survival is inactive: 86%.

Regarding `COc1ccc(NC(=O)CCc2nnc3n(CC(C)C)c(=O)c4ccccc4n23)cc1`, the survival was inactive: 84%.

With `COc1ccc(CNC(=O)c2ccc(CS(=O)Cc3ccccc3Cl)o2)cc1` (stereo unspecified), the survival is inactive: 89%.

On to `Cc1ccc(C2c3[nH]c4ccccc4c3CCN2C(=O)CCC2CCCC2)cc1` (stereo unspecified), for which the survival is inactive: 80%.

Consider `Cc1nc2ccn(Cc3ccco3)c(=O)c2cc1C(=O)N1CCN(c2ccccc2)CC1`, for which the survival was inactive: 80%.

For the compound `CCc1ccccc1NC(=O)C1CCCN(c2ncnc3onc(C)c23)C1` (stereo unspecified), the survival is inactive: 78%.

With `Cc1ccc2nc(-c3cccnc3)c(Nc3ccccc3C)n2c1`, the survival is inactive: 102%.

Take `Cc1cnc(C(=O)Nc2ccc(S(=O)(=O)NC(C)C)cc2)cn1`: the survival is inactive: 90%.

For `CCOc1ccc(S(=O)(=O)Nc2nc3ccccc3nc2Nc2ccc(OC)cc2)cc1`, the survival was inactive: 68%.

Consider `CCCNC(=O)CCSc1nc(-c2ccc3c(c2)OCO3)cc(C(F)(F)F)n1`, for which the survival is inactive: 68%.

For `C=Cc1ccc(CSc2nc(-c3ccc(C)cc3)nc3c2Cc2c(CO)cnc(C)c2O3)cc1`, the survival was inactive: 81%.

For the compound `CC(C)c1ccc(OCC(=O)N(Cc2ccc(N(C)C)cc2)C2CCS(=O)(=O)C2)cc1` (stereo unspecified), the survival is active: 43%.

Regarding `O=C(Nc1cccc(C(=O)OCc2cc(=O)n3c4c(sc3n2)CCCC4)c1)c1ccccc1`, the survival is inactive: 102%.

Regarding `Cc1cccc(NC(=O)C(NS(=O)(=O)c2ccc3c(c2)oc(=O)n3C)C(C)C)c1` (stereo unspecified), the survival was inactive: 100%.

As for `O=c1c(S(=O)(=O)c2cccc(Cl)c2)cn(Cc2ccccc2)c2cc(N3CCOCC3)c(F)cc12`, the survival is inactive: 83%.

Consider `COc1ccc2ncc3c(-c4ccc(C)c(C)c4)nn(CC(=O)NC4CCCC4)c3c2c1`, for which the survival was inactive: 101%.

As for `COc1ccc(-c2nc3c(c(SCC(=O)N(C)c4ccccc4)n2)Cc2cc(C)ccc2O3)cc1`, the survival is inactive: 95%.

With `CCCCNC(=O)C1CCC(CNS(=O)(=O)c2ccc(NC(C)=O)cc2)CC1` (stereo unspecified), the survival was inactive: 83%.

Consider `CCN(CC)c1ccc(NC(=O)Cn2nc(C)n3cccc3c2=O)c(C)c1`, for which the survival is inactive: 98%.

Consider `CCCC(C)C(=O)Nc1ccc(OC)cc1` (stereo unspecified), for which the survival is inactive: 91%.

As for `COc1cc(CCC(=O)NCc2ccc3c(c2)CCN3C(=O)c2ccc(F)cc2)cc(OC)c1OC`, the survival is inactive: 85%.

As for `Cc1ccc(-c2nnc(N(CC(C)C)C(=O)c3ccco3)s2)cc1`, the survival is inactive: 78%.

As to `CC1CCN(C(=O)CN(C)S(=O)(=O)c2ccc3ccccc3c2)CC1`, the survival was inactive: 103%.

Turning to `CCOC(=O)c1c(SCC(=O)Nc2cc(Cl)cc(Cl)c2)nc(=O)[nH]c1C`, the survival is inactive: 81%.

On to `CCC(=O)Nc1ccc(C(=O)CSc2nnc(-c3ccc(O)cc3)n2CC2CCCO2)cc1` (stereo unspecified), for which the survival was inactive: 55%.

In the case of `CCc1ccc(CNCc2c(C(=O)O)n(Cc3ccc(F)cc3Cl)c3cc(OC)ccc23)cc1`, the survival is inactive: 111%.

For the compound `O=C(c1ccc(F)cc1)n1nc(-c2ccccc2)nc1NCc1ccc(F)cc1`, the survival is active: 30%.

Turning to `COc1cc2ccccc2cc1C(=O)N1CCN(c2nc3ccc(F)cc3s2)CC1`, the survival is inactive: 87%.

Regarding `CCc1ccccc1NC(=O)CCc1c(C)nn(-c2ccc(N3CCOCC3)nn2)c1C`, the survival was inactive: 125%.

As for `CCc1nn2c(=O)cc(COC(=O)c3ccccc3NC(=O)C3CCCCC3)nc2s1`, the survival is inactive: 76%.

Consider `COc1ccc(-c2nc3n(c(=O)c2C#N)CCS3)cc1`, for which the survival is inactive: 84%.

For the compound `Cc1ccc(CN(Cc2ccco2)C(=O)COc2ccc(Cl)cc2)o1`, the survival is inactive: 59%.

On to `CCc1ccccc1NS(=O)(=O)c1ccc(NC(=O)N2CCCC2)cc1`, for which the survival is inactive: 72%.

On to `COc1cc(NC(=O)c2cc3ccccn3n2)cc(OC)c1OC`, for which the survival was inactive: 69%.

Turning to `COc1ccccc1NC(=O)CC(C)(C)C`, the survival is inactive: 102%.

For the compound `CCOc1ccc(-c2cc(-c3nc(-c4cc(OC)c(OC)c(OC)c4)no3)[nH]n2)cc1`, the survival is inactive: 119%.

Turning to `CN(C(=O)c1cc2c(s1)-c1ccc(Cl)cc1SC2)c1cccc(C(F)(F)F)c1`, the survival is inactive: 65%.

As for `COc1ccc(CCNC(=O)c2cnc3sc(N4CCCC4)nn3c2=O)cc1OC`, the survival is inactive: 80%.

As for `CCOc1ccc(-c2nnc(-c3ccc(Br)cc3)o2)cc1OCC`, the survival is inactive: 75%.

Regarding `Cc1ccc(CNC(=O)c2nnn(CC(=O)Nc3cc(C)ccc3C)c2N)cc1`, the survival is inactive: 94%.

Regarding `CCn1c(SCC(=O)Nc2cccc(Cl)c2C)nnc1C1CC1`, the survival was inactive: 89%.

Take `CCn1nnnc1SCC(=O)N1c2ccccc2CCc2ccccc21`: the survival was inactive: 88%.

As for `COc1cc(NC(=O)c2cc(C)nc3c2c(C)nn3-c2ccccc2Cl)cc(OC)c1`, the survival was inactive: 62%.

With `Cc1ccc2cc3c(N)nn(C(=O)c4cccc(F)c4)c3nc2c1`, the survival was inactive: 82%.

For `CC(=O)c1ccc(NC(=O)c2ccc(-c3nc(CSc4ccccc4)c(C)o3)cc2)cc1`, the survival was inactive: 81%.

In the case of `Fc1ccc(-c2noc3ncnc(NCC4CCN(Cc5ccc(Cl)cc5)CC4)c23)cc1`, the survival is inactive: 72%.

In the case of `c1ccc(Nc2nc(-c3ccncc3)cs2)cc1`, the survival was inactive: 100%.

`CN1C(=O)CC(C(=O)O)SC1=Nc1cccc(C(F)(F)F)c1` (stereo unspecified): the survival is inactive: 77%.

In the case of `O=C(Nc1ccccc1)C1CCCN1C1CCCCC1` (stereo unspecified), the survival is inactive: 71%.

Turning to `CCn1ccc2c(OCC(=O)Nc3ccccc3C)cccc2c1=O`, the survival is active: 8%.

For the compound `Cc1cc(C)cc(NC(=O)Cn2nnc(-c3nc(-c4ccncc4)no3)c2N)c1`, the survival is inactive: 89%.

Take `COc1cc(C(c2nnnn2Cc2ccco2)N2CCN(C3CCCC3)CC2)cc(OC)c1OC` (stereo unspecified): the survival was inactive: 73%.

Regarding `Cc1ccc(N2CCN(S(=O)(=O)c3ccc(F)c(C(=O)Nc4ccc(Cl)cc4Cl)c3)CC2C)cc1` (stereo unspecified), the survival was active: -4%.

With `Cc1cc2c(cc3c(SCc4nc(-c5ccccc5)oc4C)nnc(C)n32)o1`, the survival was inactive: 74%.

Turning to `O=C(COCc1cc(-c2ccc3c(c2)OCO3)on1)N1CCN(c2ccccc2)CC1`, the survival was inactive: 102%.

Take `COc1ccccc1NC(=O)C1=C(C)Nc2nc(SCc3ccccc3F)nn2C1c1cccs1` (stereo unspecified): the survival is inactive: 65%.

For the compound `Cc1ccc(C(CC(=O)O)C2CCOC(C)(C)C2)cc1` (stereo unspecified), the survival was inactive: 98%.
